# The list shows a part of the results.
# B1: Epa13 (Candida glabrata) (protein)
# chain: MGSSHHHHHHSSGLVPRGSHMASDSSENGYAHGCSPSIRAKLKPGLSMEIYSYALRPTDDHCWDSAYLDPMFPRTGYLTHKLLGKAEGIIGPLNFLAKNPACIPAVSTLPLAFHFPKPFTITNFTMLLYGYLSPKKTGKYTFKLLADDLLLMNFGADNAFDCCSHDATKDNIGEYVAYSVWPGVNKNVTVYLESGIYYPLRLFFNNRDAIAQLDFAYYFNDSPIRQTDFSGMFFSIPDSVKCPANI
# What was measured:
# Assay in all cases: glycan array binding signal (z-score within array); higher = stronger binding
# Settings in all cases: glycan notation: IUPAC condensed, linker removed
# [1] = target: Neu5Ac(a2-6)Gal(b1-3)GlcNAc(b1-3)[Gal(b1-4)GlcNAc(b1-6)]Gal(b1-4)Glc
# Method in brief: (§1)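 Glycan array data were curated from 3228 arrays in the Consortium for Functional Glycomics database and kept only where the protein sequence was available. Glycan names were converted to IUPAC-condensed notation, and columns mapping to the same glycan were averaged. The binding signal is a within-array Z-score, averaged across arrays of the same protein sequence at different concentrations or buffers and across linkers. Negative Z-scores can be read as non-binding.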
# Neu5Ac(a2-6)Gal(b1-4)Glc = target: Neu5Ac(a2-6)Gal(b1-4)Glc
# Method in brief: as §1
# [2] = target: Neu5Ac(a2-6)Gal(b1-4)GlcNAc
# Method in brief: as §1
# [3] = target: Neu5Ac(a2-6)Gal(b1-4)GlcNAc(b1-2)Man
# Method in brief: as §1
# [4] = target: Neu5Ac(a2-6)Gal(b1-4)GlcNAc(b1-2)Man(a1-3)Man(b1-4)GlcNAc(b1-4)GlcNAc
# Method in brief: as §1
# [5] = target: Neu5Ac(a2-6)Gal(b1-4)GlcNAc(b1-2)Man(a1-3)[Gal(b1-4)GlcNAc(b1-2)Man(a1-6)]Man(b1-4)GlcNAc(b1-4)GlcNAc
# Method in brief: as §1
# [6] = target: Neu5Ac(a2-6)Gal(b1-4)GlcNAc(b1-2)Man(a1-3)[GlcNAc(b1-2)Man(a1-6)]Man(b1-4)GlcNAc(b1-4)GlcNAc
# Method in brief: as §1
# [7] = target: Neu5Ac(a2-6)Gal(b1-4)GlcNAc(b1-2)Man(a1-3)[GlcNAc(b1-4)][Neu5Ac(a2-6)Gal(b1-4)GlcNAc(b1-2)Man(a1-6)]Man(b1-4)GlcNAc(b1-4)GlcNAc
# Method in brief: as §1
# [8] = target: Neu5Ac(a2-6)Gal(b1-4)GlcNAc(b1-2)Man(a1-3)[Man(a1-6)]Man(b1-4)GlcNAc(b1-4)GlcNAc
# Method in brief: as §1
# [9] = target: Neu5Ac(a2-6)Gal(b1-4)GlcNAc(b1-2)Man(a1-3)[Neu5Ac(a2-3)Gal(b1-4)GlcNAc(b1-2)Man(a1-6)]Man(b1-4)GlcNAc(b1-4)GlcNAc
# Method in brief: as §1
# [10] = target: Neu5Ac(a2-6)Gal(b1-4)GlcNAc(b1-2)Man(a1-3)[Neu5Ac(a2-6)Gal(b1-4)GlcNAc(b1-2)Man(a1-6)]Man(b1-4)GlcNAc(b1-4)GlcNAc
# Method in brief: as §1
# [11] = target: Neu5Ac(a2-6)Gal(b1-4)GlcNAc(b1-2)Man(a1-3)[Neu5Ac(a2-6)Gal(b1-4)GlcNAc(b1-2)Man(a1-6)]Man(b1-4)GlcNAc(b1-4)[Fuc(a1-6)]GlcNAc
# Method in brief: as §1
# [12] = target: Neu5Ac(a2-6)Gal(b1-4)GlcNAc(b1-2)Man(a1-6)Man(b1-4)GlcNAc(b1-4)GlcNAc
# Method in brief: as §1
# [13] = target: Neu5Ac(a2-6)Gal(b1-4)GlcNAc(b1-2)Man(a1-6)[Gal(b1-4)GlcNAc(b1-2)Man(a1-3)]Man(b1-4)GlcNAc(b1-4)GlcNAc
# Method in brief: as §1
# [14] = target: Neu5Ac(a2-6)Gal(b1-4)GlcNAc(b1-2)Man(a1-6)[GlcNAc(b1-2)Man(a1-3)]Man(b1-4)GlcNAc(b1-4)GlcNAc
# Method in brief: as §1
# [15] = target: Neu5Ac(a2-6)Gal(b1-4)GlcNAc(b1-2)Man(a1-6)[Man(a1-3)]Man(b1-4)GlcNAc(b1-4)GlcNAc
# Method in brief: as §1
# [16] = target: Neu5Ac(a2-6)Gal(b1-4)GlcNAc(b1-2)[Neu5Ac(a2-6)Gal(b1-4)GlcNAc(b1-4)]Man(a1-3)[GlcNAc(b1-4)][Neu5Ac(a2-6)Gal(b1-4)GlcNAc(b1-2)[Neu5Ac(a2-6)Gal(b1-4)GlcNAc(b1-6)]Man(a1-6)]Man(b1-4)GlcNAc(b1-4)GlcNAc
# Method in brief: as §1
# [17] = target: Neu5Ac(a2-6)Gal(b1-4)GlcNAc(b1-2)[Neu5Ac(a2-6)Gal(b1-4)GlcNAc(b1-4)]Man(a1-3)[GlcNAc(b1-4)][Neu5Ac(a2-6)Gal(b1-4)GlcNAc(b1-4)Man(a1-6)]Man(b1-4)GlcNAc(b1-4)GlcNAc
# Method in brief: as §1
# [18] = target: Neu5Ac(a2-6)Gal(b1-4)GlcNAc(b1-2)[Neu5Ac(a2-6)Gal(b1-4)GlcNAc(b1-6)]Man(a1-6)[Neu5Ac(a2-6)Gal(b1-4)GlcNAc(b1-2)Man(a1-3)][GlcNAc(b1-4)]Man(b1-4)GlcNAc(b1-4)GlcNAc
# Method in brief: as §1
# [19] = target: Neu5Ac(a2-6)Gal(b1-4)GlcNAc(b1-3)Gal(b1-3)GlcNAc
# Method in brief: as §1
# [20] = target: Neu5Ac(a2-6)Gal(b1-4)GlcNAc(b1-3)Gal(b1-4)GlcNAc
# Method in brief: as §1
# [21] = target: Neu5Ac(a2-6)Gal(b1-4)GlcNAc(b1-3)Gal(b1-4)GlcNAc(b1-2)Man(a1-3)[Neu5Ac(a2-6)Gal(b1-4)GlcNAc(b1-3)Gal(b1-4)GlcNAc(b1-2)Man(a1-6)]GalNAc
# Method in brief: as §1
# [22] = target: Neu5Ac(a2-6)Gal(b1-4)GlcNAc(b1-3)Gal(b1-4)GlcNAc(b1-3)Gal(b1-4)GlcNAc
# Method in brief: as §1
# [23] = target: Neu5Ac(a2-6)Gal(b1-4)GlcNAc(b1-3)Gal(b1-4)GlcNAc(b1-3)Gal(b1-4)GlcNAc(b1-2)Man(a1-3)[Neu5Ac(a2-6)Gal(b1-4)GlcNAc(b1-3)Gal(b1-4)GlcNAc(b1-3)Gal(b1-4)GlcNAc(b1-2)Man(a1-6)]GalNAc
# Method in brief: as §1
# [24] = target: Neu5Ac(a2-6)Gal(b1-4)GlcNAc(b1-3)Gal(b1-4)GlcNAc(b1-3)GalNAc
# Method in brief: as §1
# [25] = target: Neu5Ac(a2-6)Gal(b1-4)GlcNAc(b1-3)Gal(b1-4)GlcNAc(b1-3)[Neu5Ac(a2-6)Gal(b1-4)GlcNAc(b1-3)Gal(b1-4)GlcNAc(b1-6)]GalNAc
# Method in brief: as §1
# [26] = target: Neu5Ac(a2-6)Gal(b1-4)GlcNAc(b1-3)Gal(b1-4)GlcNAc(b1-6)[Gal(b1-3)]GalNAc
# Method in brief: as §1
# [27] = target: Neu5Ac(a2-6)Gal(b1-4)GlcNAc(b1-3)Gal(b1-4)[Fuc(a1-3)]GlcNAc(b1-3)Gal(b1-4)[Fuc(a1-3)]GlcNAc
# Method in brief: as §1
# [28] = target: Neu5Ac(a2-6)Gal(b1-4)GlcNAc(b1-3)GalNAc
# Method in brief: as §1
# [29] = target: Neu5Ac(a2-6)Gal(b1-4)GlcNAc(b1-3)[Neu5Ac(a2-6)Gal(b1-4)GlcNAc(b1-6)]GalNAc
# Method in brief: as §1
# [30] = target: Neu5Ac(a2-6)Gal(b1-4)GlcNAc(b1-6)GalNAc
# Method in brief: as §1
# [31] = target: Neu5Ac(a2-6)Gal(b1-4)GlcNAc(b1-6)[Gal(b1-3)GlcNAc(b1-3)]Gal(b1-4)Glc
# Method in brief: as §1
# [32] = target: Neu5Ac(a2-6)Gal(b1-4)GlcNAc(b1-6)[Gal(b1-3)]GalNAc
# Method in brief: as §1
# [33] = target: Neu5Ac(a2-6)Gal(b1-4)GlcNAc6S
# Method in brief: as §1
# Neu5Ac(a2-6)GalNAc = target: Neu5Ac(a2-6)GalNAc
# Method in brief: as §1
# [34] = target: Neu5Ac(a2-6)GalNAc(b1-4)GlcNAc
# Method in brief: as §1
# [35] = target: Neu5Ac(a2-6)GalNAc(b1-4)GlcNAc6S
# Method in brief: as §1
# [36] = target: Neu5Ac(a2-6)GlcNAc(b1-4)GlcNAc
# Method in brief: as §1
binder,measurement,setting,value
B1,glycan array binding signal (z-score),[1],-0.4
same,glycan array binding signal (z-score),Neu5Ac(a2-6)Gal(b1-4)Glc,0.076
same,glycan array binding signal (z-score),[2],-0.283
same,glycan array binding signal (z-score),[3],-0.062
same,glycan array binding signal (z-score),[4],-0.297
same,glycan array binding signal (z-score),[5],-0.141
same,glycan array binding signal (z-score),[6],-0.413
same,glycan array binding signal (z-score),[7],-0.507
same,glycan array binding signal (z-score),[8],-0.154
same,glycan array binding signal (z-score),[9],-0.262
same,glycan array binding signal (z-score),[10],-0.254
same,glycan array binding signal (z-score),[11],-0.441
same,glycan array binding signal (z-score),[12],-0.313
same,glycan array binding signal (z-score),[13],-0.468
same,glycan array binding signal (z-score),[14],0.143
same,glycan array binding signal (z-score),[15],-0.292
same,glycan array binding signal (z-score),[16],-0.188
same,glycan array binding signal (z-score),[17],-0.221
same,glycan array binding signal (z-score),[18],-0.218
same,glycan array binding signal (z-score),[19],0.146
same,glycan array binding signal (z-score),[20],-0.07
same,glycan array binding signal (z-score),[21],0.408
same,glycan array binding signal (z-score),[22],0.512
same,glycan array binding signal (z-score),[23],1.1
same,glycan array binding signal (z-score),[24],-0.142
same,glycan array binding signal (z-score),[25],0.154
same,glycan array binding signal (z-score),[26],-0.158
same,glycan array binding signal (z-score),[27],-0.164
same,glycan array binding signal (z-score),[28],-0.16
same,glycan array binding signal (z-score),[29],-0.47
same,glycan array binding signal (z-score),[30],0.211
same,glycan array binding signal (z-score),[31],-0.315
same,glycan array binding signal (z-score),[32],-0.381
same,glycan array binding signal (z-score),[33],-0.494
same,glycan array binding signal (z-score),Neu5Ac(a2-6)GalNAc,-0.619
same,glycan array binding signal (z-score),[34],-0.465
same,glycan array binding signal (z-score),[35],-0.173
same,glycan array binding signal (z-score),[36],-0.331
